Data on 172 sequences can be found in publication PMC10668032.

This is one part of the list. At the low end of the ranking the order means little.

The target in this experiment is SIX1 homeodomain (reference allele) (UniProt Q15475). As to the kind of experiment: universal protein binding microarray. Conditions: Universal all-10-mer PBM (8x60K, AMADID 030236), 300 nM GST-tagged protein, Alexa Fluor 488 anti-GST; buffer, salt, pH and temperature not stated; high values mean tight binding; most listed sequences are background and not binding sites; double strand, one strand shown.
As for CGGTATAC, the binding signal was 0.393 E-score.

With ACTTTTTG, the binding signal was -0.165 E-score.

In the case of CCCCGTCG, the binding signal was determined as 0.0374 E-score.

Consider CCCCGGTA, for which the binding signal was found to be 0.182 E-score.

As to AAATATCA, the binding signal is 0.224 E-score.

In the case of AAGCCGCT, the binding signal is -0.25 E-score.

Take AATCGCGC: the binding signal was -0.0898 E-score.

As to CCTTCAAG, the binding signal was -0.00369 E-score.

AGGGCCTA: the binding signal is -0.136 E-score.

For the sequence AGGTTTAG, the binding signal was -0.0499 E-score.

As to CATTTGAG, the binding signal is -0.0247 E-score.

Take GATCAACA: the binding signal worked out at 0.281 E-score.

Regarding AATTATGG, the binding signal worked out at 0.0156 E-score.

For CGCCCAGA, the binding signal was 0.0463 E-score.

Turning to CGAGAACC, the binding signal was determined as 0.0342 E-score.

Consider CCAGGTAA, for which the binding signal is -0.0129 E-score.

For the sequence CACCTCAG, the binding signal is -0.0661 E-score.

In the case of AAGTTGAG, the binding signal is -0.128 E-score.

Regarding CGAAGGAA, the binding signal was -0.23 E-score.

In the case of GGCTTTAA, the binding signal is -0.0524 E-score.

As for GGCCAGTA, the binding signal is -0.0536 E-score.

Take GCTGAGGA: the binding signal is -0.0653 E-score.

AGTCGGCC: the binding signal was -0.228 E-score.

Regarding AGACACAA, the binding signal came to 0.0103 E-score.

For the sequence CATAGTTC, the binding signal is -0.264 E-score.

As to CACTGTAA, the binding signal was -0.0313 E-score.

On to ATGTCTCG, for which the binding signal was found to be 0.07 E-score.

As to AACTCGCA, the binding signal is -0.216 E-score.

For the sequence ATCCTCAT, the binding signal was found to be 0.182 E-score.

With GCCAGTTA, the binding signal was -0.048 E-score.

Turning to GAATACGA, the binding signal is 0.24 E-score.

For the sequence TAACTGGA, the binding signal was -0.109 E-score.

With CTCGGGCA, the binding signal is -0.026 E-score.

Turning to CTTAGAAC, the binding signal was -0.185 E-score.

As for GCCCTGCC, the binding signal was -0.113 E-score.

Take GGAACCTA: the binding signal is -0.0906 E-score.

As for AGAGATCA, the binding signal is 0.302 E-score.

With AAGGCAAC, the binding signal was -0.0551 E-score.

With ACACCTTC, the binding signal was 0.219 E-score.

As for CATGGTCA, the binding signal was found to be 0.0425 E-score.

Regarding ACTGCGCG, the binding signal came out at 0.0673 E-score.

Consider ACTGGAAT, for which the binding signal was 0.00962 E-score.

For CACAAACA, the binding signal is -0.142 E-score.

As to TCGCACGA, the binding signal came out at 0.1 E-score.

For AGTCCGAG, the binding signal was -0.168 E-score.

Take AATGTACT: the binding signal was -0.117 E-score.

On to CTTCCGTA, for which the binding signal turned out to be 0.0242 E-score.

Consider GAAGACTC, for which the binding signal was -0.198 E-score.

For ATATATGA, the binding signal came out at 0.233 E-score.

Turning to AAGATTGG, the binding signal is -0.0837 E-score.

GAATGCGA: the binding signal was -0.0219 E-score.

Consider AGTTCGAT, for which the binding signal is 0.0731 E-score.

As to ACACGATA, the binding signal was found to be 0.384 E-score.

As for GCCACGAC, the binding signal was -0.23 E-score.

As to AGACATTC, the binding signal was determined as 0.0407 E-score.

With CGGCTGGA, the binding signal turned out to be 0.0427 E-score.

With CGGCTCCA, the binding signal is 0.0154 E-score.

Consider CGTGGAGA, for which the binding signal stood at 0.063 E-score.

Regarding GATTATTA, the binding signal is 0.209 E-score.

On to AACGGTCG, for which the binding signal is -0.048 E-score.

Regarding ACGAGCTA, the binding signal is -0.0166 E-score.

For GACTTGCC, the binding signal was -0.176 E-score.

Consider CAGCAGGC, for which the binding signal was -0.158 E-score.

AATCAGTG: the binding signal is -0.0483 E-score.

AAGCGCCA: the binding signal was -0.121 E-score.

Consider AGCTAGTA, for which the binding signal was -0.00123 E-score.

Take ACGTCAGC: the binding signal was -0.123 E-score.

With AGACGAGA, the binding signal was -0.0263 E-score.

On to ACATTAAT, for which the binding signal was determined as 0.0369 E-score.

For ATGATTTG, the binding signal is -0.0761 E-score.

Regarding CGTGCCAG, the binding signal was 0.0115 E-score.

With ATCACACA, the binding signal was 0.266 E-score.

Take CTGGAGCC: the binding signal is -0.0758 E-score.

Consider CGTATGTA, for which the binding signal was found to be 0.11 E-score.

With GCTGACAC, the binding signal turned out to be 0.246 E-score.

On to AGGAAGTG, for which the binding signal is -0.0622 E-score.

For the sequence GACTAAGA, the binding signal is 0.0305 E-score.

AAGTGCCG: the binding signal was -0.341 E-score.

Turning to CTATAGTA, the binding signal is 0.0613 E-score.

Regarding ACAAACCT, the binding signal was -0.0785 E-score.

As to TTGGTAAA, the binding signal is -0.0398 E-score.

As for AAGGCTAA, the binding signal was -0.17 E-score.

Take CCAAGAAC: the binding signal was -0.183 E-score.

As for ACATCCCC, the binding signal stood at 0.0721 E-score.

Regarding CACTTTCC, the binding signal is -0.131 E-score.

As for GATCCGCC, the binding signal was found to be 0.427 E-score.

On to GATTAAAC, for which the binding signal was found to be 0.0283 E-score.

Regarding AAGCACGA, the binding signal was -0.0229 E-score.

GCAGTTAA: the binding signal was -0.206 E-score.

Take CACTAATC: the binding signal turned out to be 0.114 E-score.

As for AAGCGTGA, the binding signal was -0.00283 E-score.

Take CGTGATGC: the binding signal came out at 0.0421 E-score.

Consider AGTTCTAA, for which the binding signal was -0.0676 E-score.

Take ACCTTCGT: the binding signal is -0.119 E-score.

Regarding AGCCTCAA, the binding signal was -0.106 E-score.

With TAAACATA, the binding signal is -0.0782 E-score.

As for ACCATGGA, the binding signal was -0.0568 E-score.

As for CTTGCACA, the binding signal was -0.0504 E-score.

As to CCCGTGGA, the binding signal was 0.0342 E-score.

Take CCGAAGTA: the binding signal worked out at 0.088 E-score.

Regarding ACACTAAC, the binding signal is -0.213 E-score.

Consider GCGCAACA, for which the binding signal is -0.143 E-score.

Consider GGTTGCAA, for which the binding signal is -0.134 E-score.

For the sequence ACTTTCAC, the binding signal was -0.201 E-score.

Regarding TGACGTAA, the binding signal is -0.153 E-score.

Regarding CGCGTGCC, the binding signal is -0.0626 E-score.

As to TCGTTGCA, the binding signal was -0.128 E-score.

Turning to CCGACGCC, the binding signal was -0.0255 E-score.

Turning to CTCGGCCA, the binding signal is -0.137 E-score.

With AATTCTTC, the binding signal was -0.276 E-score.

For GGGAACCA, the binding signal is -0.261 E-score.

As for ACGCGGTC, the binding signal was -0.122 E-score.

As to AATAGAGC, the binding signal is -0.0381 E-score.

For the sequence GTGGGAGA, the binding signal was -0.0202 E-score.

For the sequence GAGTCTAC, the binding signal was -0.222 E-score.

For the sequence CCACGTTA, the binding signal is -0.111 E-score.

For the sequence AAGCTCAC, the binding signal was -0.0587 E-score.

Regarding CACGCTGC, the binding signal is -0.0245 E-score.

In the case of CCAAAGTC, the binding signal is -0.157 E-score.

AGACCCTC: the binding signal was -0.148 E-score.

For ACAGTGTC, the binding signal was determined as 0.0238 E-score.

For CTGATTTC, the binding signal was -0.109 E-score.

For the sequence CACCCATA, the binding signal was 0.154 E-score.

On to CTGTTTAA, for which the binding signal is -0.063 E-score.

Turning to AGAGATAC, the binding signal was found to be 0.38 E-score.

With ATGCTCAC, the binding signal is -0.126 E-score.

For ATGGGATC, the binding signal came to 0.368 E-score.

Take GAATTACA: the binding signal was -0.0404 E-score.

As to GTAACCCA, the binding signal came out at 0.169 E-score.

With TACTCTCA, the binding signal was -0.0207 E-score.

For the sequence CGCACACA, the binding signal is -0.108 E-score.

Turning to CAATGCTC, the binding signal was -0.165 E-score.

Take ACCGTGGC: the binding signal was -0.189 E-score.

Take AGGACACT: the binding signal is -0.0785 E-score.

Regarding GGACTGAA, the binding signal is -0.295 E-score.

As for CACTTCCC, the binding signal was -0.169 E-score.

As to CCCATACA, the binding signal worked out at 0.0926 E-score.

In the case of ACACTCCA, the binding signal is -0.0164 E-score.

Consider ACATTTTC, for which the binding signal is -0.167 E-score.

As for AGTCTTAC, the binding signal was -0.111 E-score.

In the case of CGTGAAAA, the binding signal is -0.243 E-score.

As for CACCAGCC, the binding signal is 0.0347 E-score.

With CTTCCAAG, the binding signal is -0.142 E-score.

Consider GATCTGAC, for which the binding signal was found to be 0.238 E-score.

Consider GCGGGACC, for which the binding signal was -0.243 E-score.

Consider CCGAGACA, for which the binding signal is 0.188 E-score.

For the sequence CTAGACCC, the binding signal was determined as 0.103 E-score.

Take CAACGGAC: the binding signal is -0.22 E-score.

In the case of CGGGCCGA, the binding signal was -0.107 E-score.

In the case of TACCACGA, the binding signal turned out to be 0.191 E-score.

Turning to AGCGAAAC, the binding signal was -0.148 E-score.

Consider CCTCTCGA, for which the binding signal is -0.0263 E-score.

Turning to ATATTTCA, the binding signal is 0.0592 E-score.

Consider CGAAGTCA, for which the binding signal was -0.172 E-score.

As to GAGAAGCA, the binding signal amounted to 0.0328 E-score.

GGAATTAC: the binding signal was -0.184 E-score.

Regarding AAGCGGGG, the binding signal is -0.0754 E-score.

For TCGCCAGA, the binding signal was -0.066 E-score.

Consider CTACCATA, for which the binding signal came out at 0.167 E-score.

On to GACACTAA, for which the binding signal is -0.1 E-score.

On to CGTCGCCC, for which the binding signal is -0.168 E-score.

Regarding CGCCAGCC, the binding signal was -0.157 E-score.

Take GTGGTTCA: the binding signal was 0.118 E-score.

Consider CGGCATAA, for which the binding signal is -0.0508 E-score.

Consider ACCCGTGG, for which the binding signal is -0.0261 E-score.

Turning to AAAAGTCA, the binding signal was -0.312 E-score.

In the case of CTTGCCAC, the binding signal is -0.151 E-score.

As for AGCAAAGC, the binding signal was -0.249 E-score.

With AGACCCCC, the binding signal is 0.0014 E-score.

GGCCATAA: the binding signal is -0.0624 E-score.

On to CTAAGTTC, for which the binding signal was -0.177 E-score.

For the sequence AATGCAGA, the binding signal was -0.0421 E-score.
